Measured values published in paper PMC8931350 (Proceedings of the National Academy of Sciences of the …, 2022).

Biological target: the molecule itself
Assay: cryo-EM structure

B1: PYD-deleted recombinant human NLRP3 (residues 130 to 1,036) (domain or fragment)
chain: not shown
  stoichiometry N: 6
